Results taken from article PMC4336329 (PLoS ONE, 2015).
Among all 310,000 compounds or so, about 2,200 (0.71%) showed an effect of 50% or more. Effects have a minus sign here. The list shows a part of the results.

target: human ether-à-go-go-related gene (hERG) potassium channel (human, UniProt Q12809); test: primary screen, population patch clamp on CHO cells stably expressing hERG
Sequence (Q12809 whole entry, looked up): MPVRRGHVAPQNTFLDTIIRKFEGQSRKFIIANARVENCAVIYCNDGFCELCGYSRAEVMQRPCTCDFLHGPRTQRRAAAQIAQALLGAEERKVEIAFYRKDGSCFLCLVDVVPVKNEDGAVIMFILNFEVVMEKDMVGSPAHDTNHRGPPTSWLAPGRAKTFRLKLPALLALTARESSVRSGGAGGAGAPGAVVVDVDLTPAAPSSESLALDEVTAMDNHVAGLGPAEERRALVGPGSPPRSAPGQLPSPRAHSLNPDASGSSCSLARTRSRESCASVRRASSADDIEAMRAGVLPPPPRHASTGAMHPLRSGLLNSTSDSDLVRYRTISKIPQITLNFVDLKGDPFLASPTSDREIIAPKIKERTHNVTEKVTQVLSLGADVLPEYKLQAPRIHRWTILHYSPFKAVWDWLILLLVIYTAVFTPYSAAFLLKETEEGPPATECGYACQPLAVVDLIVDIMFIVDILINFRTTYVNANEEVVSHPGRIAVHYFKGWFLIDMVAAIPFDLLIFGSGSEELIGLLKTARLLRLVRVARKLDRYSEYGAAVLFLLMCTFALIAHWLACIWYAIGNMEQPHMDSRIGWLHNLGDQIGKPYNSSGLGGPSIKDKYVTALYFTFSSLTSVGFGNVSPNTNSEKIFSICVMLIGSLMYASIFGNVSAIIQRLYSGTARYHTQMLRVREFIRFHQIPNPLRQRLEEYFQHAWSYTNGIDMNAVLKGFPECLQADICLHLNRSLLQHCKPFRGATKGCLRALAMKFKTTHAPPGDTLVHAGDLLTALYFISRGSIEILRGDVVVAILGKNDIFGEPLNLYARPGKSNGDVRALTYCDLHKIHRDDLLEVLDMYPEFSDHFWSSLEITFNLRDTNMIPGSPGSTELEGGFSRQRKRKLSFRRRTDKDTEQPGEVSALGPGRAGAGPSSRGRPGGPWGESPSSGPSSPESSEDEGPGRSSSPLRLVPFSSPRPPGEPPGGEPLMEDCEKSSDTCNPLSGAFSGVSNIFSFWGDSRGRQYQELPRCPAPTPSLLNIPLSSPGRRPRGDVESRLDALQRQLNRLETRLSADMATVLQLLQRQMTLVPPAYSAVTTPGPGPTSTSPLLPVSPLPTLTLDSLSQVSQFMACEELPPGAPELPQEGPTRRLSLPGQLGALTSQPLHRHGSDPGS

| Structure (SMILES) | hERG current change (%, negative = inhibition) at 1uM [%] |
| --- | --- |
| COc1ccccc1NS(=O)(=O)c1cccc2nsnc12 | 11.9 |
| CN(C(=O)COC(=O)c1cc2ccccc2cc1O)C1CCCCC1 | 13.8 |
| O=C(O)CCCC(=O)N1N=C(c2c(-c3ccccc3)c3cc(Cl)ccc3[nH]c2=O)CC1c1cccs1 (stereo not shown) | 8.21 |
| C#CCSc1ncc(S(=O)(=O)c2ccccc2)c(=O)[nH]1 | 6.68 |
| O=C(c1ccc(F)cc1F)C1CCN(c2ccc([N+](=O)[O-])cn2)CC1 | 5.79 |
| Cc1ccc(-c2nnc(N3CCN(C(=O)COc4cccc(C)c4)CC3)c3ccccc23)cc1 | 1.66 |
| CCCCCOc1ccc(OC(=O)c2ccncc2)cc1 | 13.6 |
| CC(=O)NCC(=O)N(Cc1ccco1)C1(C(=O)NC2CCCC2)CCCCC1 | 12.4 |
| CCc1ccccc1-n1c(SCC(=O)N2CCCC2)nc2[nH]ncc2c1=O | -0.685 |
| CCC(c1nnnn1Cc1ccc(OC)cc1)N(CCCO)Cc1cc2cc3c(cc2[nH]c1=O)OCO3 (stereo not shown) | 6.91 |
| CCNC(=O)NC(=O)C(C)OC(=O)CCCSc1nc2ccccc2s1 (stereo not shown) | -5.32 |
| CC(C)(C)C1CCC(=NNS(=O)(=O)c2ccc(Br)cc2)CC1 (stereo not shown) | 9.03 |
| COc1ccc(N(CC(=O)Nc2c(C)cccc2C)S(=O)(=O)c2ccccc2[N+](=O)[O-])c(OC)c1 | 18 |
| Cc1cccc(NS(=O)(=O)c2ccc(C)c(C(=O)N(C)C)c2)c1 | 9.25 |
| O=C(Nc1cc(Cl)ccc1-n1cncn1)c1cc(F)cc(F)c1 | 6.11 |
| CCOc1ccc(NC2=NCC(=O)N2Cc2cccs2)cc1.Cl | 2.41 |
| O=C(N/N=C/c1cc(Cl)ccc1O)C(=O)Nc1ccccc1OC(F)(F)C(F)F | 2.44 |
| Cc1ccccc1-n1nnnc1SCC(=O)N(C)C1CCS(=O)(=O)C1 (stereo not shown) | 14.5 |
| FC(F)(F)c1ccccc1-n1c(CN2CCCCC2)n[nH]c1=S | -9.23 |
| Cc1ccc(NC2=C/C(=N/S(=O)(=O)c3cccs3)c3ccccc3C2=O)cc1 | 8.88 |
| Cc1cc(C)nc(N(C#N)C(C)C(=O)N(C)C)n1 (stereo not shown) | 13.4 |
| Cn1cccc1-c1cc(C(=O)N/N=C/c2cccc(O)c2)[nH]n1 | 12.1 |

| Structure (SMILES) | hERG current change (%, negative = inhibition) at 1uM [%] |
| --- | --- |
| O=C(CSCc1ccc(Cl)cc1)N1CCN(Cc2ccc3c(c2)OCO3)CC1 | -0.732 |
| Cc1c(CCOC(=O)C2C3CC4CC(C3)CC2C4)sc[n+]1CC(=O)c1ccc(Br)cc1.[Br-] (stereo not shown) | 2.4 |
| COCCCNC(=S)N/N=C/c1ccc2c(c1)OCO2 | 8.44 |
| Cc1cc(C)n2nc(/C(C#N)=C/c3ccccn3)c(C#N)c2n1 | 18 |
| O=C(Cc1ccc(F)cc1)N1CCN(c2ccc([N+](=O)[O-])cc2)CC1 | -45.8 |
| COc1ccc(C(CNC(=O)c2ccc(C)o2)N2CCOCC2)cc1 (stereo not shown) | -1.5 |
| COc1cccc(CNC(=O)COC(=O)c2cc([N+](=O)[O-])ccc2N2CCCC2)c1 | -16.4 |
| COCCCNC(=S)N1CCN(C)CC1 | -6.76 |
| COc1ccc(C2C3=C(CCCC3=O)Nc3nc(SCc4ccc(C(=O)O)cc4)nn32)cc1OC (stereo not shown) | 3.59 |
| Cc1cc(NC(=O)c2cc(-c3ccccn3)nc3ccc(Br)cc23)no1 | 14.1 |
| Cc1c(OCC(=O)C(C)(C)C)ccc2c3c(c(=O)oc12)CCCC3 | 15.3 |
| COc1cc2c(cc1OC)-c1nnnn1C(C)(C)C2 | 7.62 |
| O=C(Nc1c(C(=O)N2CCCCC2)cnn1-c1ccccc1)c1ccccc1F | 10.2 |
| Cc1cc(NS(=O)(=O)c2ccc(NC(=O)c3ccc(Br)o3)cc2)nc(C)n1 | 17 |
| CCn1c(Cn2nnc(-c3ccccc3)n2)nnc1SCC(=O)Nc1ccc(N(C)C)cc1 | 20.6 |
| O=C(c1ccco1)N1CCN(C(=O)N2c3ccccc3Sc3ccccc32)CC1 | -2.52 |
| CCCCS(=O)(=O)/C=C\C1C2C=CC(C2)C1S(=O)(=O)CCCC (stereo not shown) | 3.31 |
| CC1CCc2nc(NC(=O)C3CCCO3)sc2C1 (stereo not shown) | 2.12 |
| O=C(CNC(=O)c1ccc(Br)o1)NNC(=O)c1ccccc1O | 3.31 |
| Cc1ccccc1NC(=O)Cn1cccc1 | -3.27 |
| COc1ccc(/C=C(/NC(=O)c2ccc(OC)cc2)C(=O)NCCc2c[nH]c3ccccc23)cc1 | -1.5 |
| CSc1nnc(Cc2sc(-c3ccccc3)nc2-c2ccccc2)o1 | 12.1 |

| Structure (SMILES) | hERG current change (%, negative = inhibition) at 1uM [%] |
| --- | --- |
| O=C1OCCC1Sc1nnc(-c2ccco2)n1-c1ccccc1 (stereo not shown) | 14 |
| CC(C)(C)C(=O)NCCN1CCN(C(=O)C(C)(C)C)CC1 | 3.83 |
| CCN(CC)CCNC(=O)c1cc(-c2ccc(Br)s2)nc2ccccc12 | 11.7 |
| COC(=O)c1[nH]c2ccc(F)cc2c1NS(=O)(=O)c1ccc(F)c(C)c1 | 2.13 |
| COc1ccccc1C(=O)NC(C)c1nc2ccccc2[nH]1 (stereo not shown) | 22.4 |
| O=C1Nc2ccccc2OC1CC(=O)N1CCN(c2cccc(C(F)(F)F)c2)CC1 (stereo not shown) | -9.68 |
| CC(NC(=O)C(NS(=O)(=O)c1cccs1)C(C)C)c1ccc(S(N)(=O)=O)cc1 (stereo not shown) | 9.56 |
| Cc1ccc(NC2c3ccccc3C(=O)N2c2cccnc2)cc1 (stereo not shown) | 9.03 |
| Cc1ccnc(NC(=O)/C=C/c2ccccc2Cl)c1 | -3.23 |
| O=C(NCC1COc2ccccc2O1)c1cn(Cc2ccc(F)cc2)nn1 (stereo not shown) | -2.3 |
| COCCCNC(=O)c1c(N)n(/N=C/c2cccnc2)c2nc3ccccc3nc12 | 12.5 |
| Cc1sc2nc(CN(C(=O)c3cccs3)C3CCCC3)[nH]c(=O)c2c1C | 12.7 |
| O=C1c2ccccc2C(=O)C1(O)O | 18 |
| N#Cc1ccc(NC(=O)c2cc(S(=O)(=O)N3CCOCC3)ccc2N2CCCC2)cc1 | -58.9 |
| O=C(COc1ccc(Cl)cc1Cl)NNC(=S)NCc1ccco1 | 13.1 |
| Cc1ccc(C)c(N(CC(=O)NC2CCCC2)C(=O)c2csnn2)c1 | 10.9 |
| CC(OC(=O)Cc1n[nH]c(=O)c2ccccc12)C(=O)Nc1ccc(Cl)cn1 (stereo not shown) | 0.491 |
| Cc1ccc(Nc2nc(CSc3nnnn3C)cs2)cc1 | 1.3 |
| CN(C)S(=O)(=O)c1ccc(Cl)c(C(=O)Nc2cccc3ncccc23)c1 | 12.2 |
| COc1cc(OC)cc(C(=O)NCCSC2CCCCC2)c1 | 11.3 |
| O=C(c1cnccn1)N1CCc2ccccc2C1 | 6.48 |
| O=C(NS(=O)(=O)c1ccccc1)c1ccccc1O | 0.636 |

| Structure (SMILES) | hERG current change (%, negative = inhibition) at 1uM [%] |
| --- | --- |
| CN(C(=O)COc1ccc(-c2nnco2)cc1)C1CCS(=O)(=O)C1 (stereo not shown) | -0.758 |
| COc1ccc(N2CC(C(=O)NC3CC(C)(C)NC(C)(C)C3)CC2=O)cc1 (stereo not shown) | 0.081 |
| CCN(CC)S(=O)(=O)c1ccc(Cl)c(NC(=O)COC(=O)C2CCCCC2)c1 | 3.05 |
| CS(=O)(=O)Nc1cccc(C2=NN(C(=O)c3ccc(F)cc3)C(c3cccs3)C2)c1 (stereo not shown) | 10.2 |
| O=C(/C=C/NNC(=O)c1ccccc1)c1ccccc1 | 2.02 |
| Cc1ccc(C2CC(c3ccco3)=NN2S(C)(=O)=O)cc1 (stereo not shown) | 10.5 |
| COC(=O)c1cccc(CN2C(=O)SC(Nc3ccc(C)cc3)C2=O)c1 (stereo not shown) | 12.6 |
| CN(CC(=O)NC1CCN(Cc2ccccc2)CC1)S(=O)(=O)c1ccc(Cl)s1 | -13.6 |
| CCOc1ncccc1C(=O)Nc1cc(S(=O)(=O)N2CCCCC2)ccc1Cl | 23.2 |
| O=C(NCc1ccc2c(c1)OCO2)c1n[nH]c(=O)c2ccccc12 | 15.4 |
| COc1ccc(-c2noc(=O)n2Cc2cc(C)ccc2C)cc1 | 4.48 |
| O=C(COC(=O)Cc1ccsc1)Nc1ccccc1 | -0.148 |
| COc1ccc(-n2nc3c(c2NC(=O)CCCCl)CSC3)cc1 | 11.8 |
| Cc1ccc(S(=O)(=O)N2CC(O)CC2C(=O)OCc2nc3sc(C)c(C)c3c(=O)[nH]2)cc1 (stereo not shown) | 12.6 |
| O=[N+]([O-])c1ccccc1S(=O)(=O)Nc1ccc(-c2ccc3nncn3n2)cc1 | -16.1 |
| COc1ccc(C)cc1Nc1nc(-c2c[nH]c3ccccc23)cs1 | 6.9 |
| COc1cccc(NC(=S)NCc2ccccn2)c1 | 11.4 |
| CCN1CCN(c2ccc(S(=O)(=O)N3CCCCC3)cc2NC(=O)/C=C/c2cc(OC)ccc2OC)CC1 | -1.04 |
| c1ccc2nc3c(nc2c1)c1ccccc1n3CCN1CCOCC1 | -13.8 |
| Cc1cc(/C=N/NC(=O)c2c(Br)cnn2C)c(C)n1-c1cccc(Br)c1 | 15.9 |
| Cc1cc(NC(=O)CSc2nnc(C(C)N(C)C)n2Cc2ccccc2)no1 (stereo not shown) | 17.4 |
| S=C(NCCC1=CCCCC1)Nc1ccccc1 | 11.7 |
